# Results are given in words; binding and its absence hold for the method and conditions named. In cells and extracts the contact can be indirect. Some entries that bind do so weakly or less than the wild type.
# Amino acid sequences for entries named in this document (tags omitted).
# UniProt P37238: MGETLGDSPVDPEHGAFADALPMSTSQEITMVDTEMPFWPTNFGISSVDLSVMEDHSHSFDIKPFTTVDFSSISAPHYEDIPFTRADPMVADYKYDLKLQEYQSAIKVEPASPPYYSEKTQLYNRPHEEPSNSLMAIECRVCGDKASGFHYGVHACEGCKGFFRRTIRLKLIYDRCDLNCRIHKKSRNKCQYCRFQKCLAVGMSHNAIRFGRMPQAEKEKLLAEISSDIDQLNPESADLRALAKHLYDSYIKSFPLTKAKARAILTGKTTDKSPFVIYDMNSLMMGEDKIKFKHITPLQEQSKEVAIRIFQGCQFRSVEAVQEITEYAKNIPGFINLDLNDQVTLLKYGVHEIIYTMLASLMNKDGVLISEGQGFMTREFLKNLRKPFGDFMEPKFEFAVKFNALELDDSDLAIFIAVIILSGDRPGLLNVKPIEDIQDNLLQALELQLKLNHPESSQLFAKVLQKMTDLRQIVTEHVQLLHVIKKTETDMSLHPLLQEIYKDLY
# T1: lysosome-associated membrane protein 2 (mouse (endogenous in mouse neutrophils)) (UniProt P17047)
# T1 sequence: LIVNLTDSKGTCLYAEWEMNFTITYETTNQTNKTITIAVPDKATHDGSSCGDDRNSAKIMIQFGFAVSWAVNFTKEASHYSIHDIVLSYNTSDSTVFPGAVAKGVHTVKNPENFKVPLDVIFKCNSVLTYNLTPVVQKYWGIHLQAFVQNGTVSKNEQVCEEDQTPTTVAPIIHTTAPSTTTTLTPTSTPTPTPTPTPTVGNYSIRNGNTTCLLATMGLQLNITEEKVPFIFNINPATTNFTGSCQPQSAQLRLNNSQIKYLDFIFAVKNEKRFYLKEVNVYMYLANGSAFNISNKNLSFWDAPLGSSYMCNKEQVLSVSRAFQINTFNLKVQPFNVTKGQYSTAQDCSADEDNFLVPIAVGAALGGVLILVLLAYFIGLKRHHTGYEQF
# T2: mouse taste receptor type-2 member 138 (mouse (endogenous in mouse neutrophils)) (UniProt Q7TQA6)
# T2 sequence: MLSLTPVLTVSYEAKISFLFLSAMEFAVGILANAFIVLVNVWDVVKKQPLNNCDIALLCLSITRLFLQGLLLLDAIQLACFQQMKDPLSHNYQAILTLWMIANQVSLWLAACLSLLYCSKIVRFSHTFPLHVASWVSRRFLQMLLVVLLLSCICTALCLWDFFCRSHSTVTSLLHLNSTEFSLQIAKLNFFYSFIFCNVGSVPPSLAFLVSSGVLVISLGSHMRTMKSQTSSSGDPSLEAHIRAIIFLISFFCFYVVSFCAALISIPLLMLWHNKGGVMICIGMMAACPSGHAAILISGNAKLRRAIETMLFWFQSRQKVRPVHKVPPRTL
# T3: perilipin-2 (mouse (endogenous in mouse neutrophils)) (UniProt P43883)
# T3 sequence: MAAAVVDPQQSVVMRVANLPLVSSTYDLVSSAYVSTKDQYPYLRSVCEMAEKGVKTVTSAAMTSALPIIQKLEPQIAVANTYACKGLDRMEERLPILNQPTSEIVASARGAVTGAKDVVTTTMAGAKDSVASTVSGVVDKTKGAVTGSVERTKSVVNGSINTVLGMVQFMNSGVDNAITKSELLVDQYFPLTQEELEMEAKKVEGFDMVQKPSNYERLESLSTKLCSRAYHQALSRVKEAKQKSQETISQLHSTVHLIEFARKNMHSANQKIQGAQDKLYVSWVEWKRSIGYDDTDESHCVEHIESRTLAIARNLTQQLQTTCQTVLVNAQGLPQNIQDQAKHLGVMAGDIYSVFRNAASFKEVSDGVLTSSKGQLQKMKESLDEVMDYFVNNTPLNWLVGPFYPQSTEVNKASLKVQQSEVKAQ
# Legend:
# Experiment in all cases: co-IP; Dynabeads (sheep anti-mouse or anti-rabbit IgG) loaded with an antibody to one protein or IgG control, incubated overnight at 4 °C with RIPA lysate of mouse neutrophils; the other protein detected by western blotting
# [1] = target: T1, lysosome-associated membrane protein 2 (mouse (endogenous in mouse neutrophils))
# [2] = target: T2, mouse taste receptor type-2 member 138 (mouse (endogenous in mouse neutrophils))
# [3] = target: T3, perilipin-2 (mouse (endogenous in mouse neutrophils))
# [4] = target: peroxisome proliferator-activated receptor gamma (mouse (endogenous in mouse neutrophils)) (UniProt P37238)
binding [1],binding [2],binding [3],binding [4],Molecule
no binding,no binding,binds,–,peroxisome proliferator-activated receptor gamma (from UniProt P37238 1-505)
binds,–,–,binds,"perilipin-2 (protein, UniProt P43883 1-425) MAAAVVDPQQSVVMRVANLPLVSSTYDLVSSAYVSTKDQYPYLRSVCEMAEKGVKTVTSAAMTSALPIIQKLEPQIAVANTYACKGLDRMEERLPILNQPTSEIVASARGAVTGAKDVVTTTMAGAKDSVASTVSGVVDKTKGAVTGSVERTKSVVNGSINTVLGMVQFMNSGVDNAITKSELLVDQYFPLTQEELEMEAKKVEGFDMVQKPSNYERLESLSTKLCSRAYHQALSRVKEAKQKSQETISQLHSTVHLIEFARKNMHSANQKIQGAQDKLYVSWVEWKRSIGYDDTDESHCVEHIESRTLAIARNLTQQLQTTCQTVLVNAQGLPQNIQDQAKHLGVMAGDIYSVFRNAASFKEVSDGVLTSSKGQLQKMKESLDEVMDYFVNNTPLNWLVGPFYPQSTEVNKASLKVQQSEVKAQ"
no binding,–,–,–,"mouse taste receptor type-2 member 138 (receptor, UniProt Q7TQA6 1-331) MLSLTPVLTVSYEAKISFLFLSAMEFAVGILANAFIVLVNVWDVVKKQPLNNCDIALLCLSITRLFLQGLLLLDAIQLACFQQMKDPLSHNYQAILTLWMIANQVSLWLAACLSLLYCSKIVRFSHTFPLHVASWVSRRFLQMLLVVLLLSCICTALCLWDFFCRSHSTVTSLLHLNSTEFSLQIAKLNFFYSFIFCNVGSVPPSLAFLVSSGVLVISLGSHMRTMKSQTSSSGDPSLEAHIRAIIFLISFFCFYVVSFCAALISIPLLMLWHNKGGVMICIGMMAACPSGHAAILISGNAKLRRAIETMLFWFQSRQKVRPVHKVPPRTL"
